From publication PMC12040169 (PLOS Biology, 2025) come the findings set out here.

This is one part of the list.

For this assay, the system named is T1, C. trachomatis L2/434/Bu expressing GFP (CTL2-GFP).
T1 construct: L2/434/Bu GFP intracellular growth in HeLa cells
The arrangement: species or system HeLa; C. trachomatis total inclusion area by high-content imaging, normalised to DMSO. Particulars: total inclusion area; 28.5 h, 10 µM; inhibitor. The method in brief: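 Host cell viability was gauged from Hoechst-stained nuclei counts, while chlamydial growth was taken from total inclusion area and inclusion number per well. Cells were fixed and imaged by high-content microscopy once bulk GFP and resorufin fluorescence had been measured.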
`COc1ccc(/C(N)=N/OC(=O)C(C)Oc2ccc(C(C)(C)C)cc2)cc1OC` (stereo not shown) [CBK267378]: the “% of control remaining” value worked out at 81.996. Consider `Cn1c(=O)oc2ccc(C(=O)Nc3cccc(-c4ccc(F)cc4)c3)cc21` [CBK286023], for which the “% of control remaining” value is 74.3088.

Take `CN(C)C(=O)Cn1nc(-c2cccc(-n3cccc3)c2)oc1=O` [CBK283759]: the “% of control remaining” value stood at 48.5089. Then `CC(=O)C(Sc1nc(NC(C)C)nc(N(C)C)n1)C(C)=O` [CBK269811], with 92.2576. On to `Cc1cccc(C)c1NC(=O)CC1Sc2ccccc2NC1=O` (stereo not shown) [CBK267160], for which the “% of control remaining” value was determined as 103.532. Consider `O=C(CN1CCCCC1)Nc1c(-c2ccccc2)c2cc(Br)ccc2[nH]c1=O` [CBK263351], for which the “% of control remaining” value came out at 86.6324. For `Cc1oc(NC(=O)CN2CCN(c3ncccn3)CC2)c(C#N)c1C` [CBK305569], the “% of control remaining” value is 110.515. As for `CCN(CC)c1nc(Cl)c(C#N)c2c1CN(C)CC2` [CBK009140], the “% of control remaining” value is reported as 50.1958. For `O=C1COc2ccccc2C/C=C/C[C@H]2CN(C(=O)Cn3ncc4ccccc4c3=O)CC[C@H]2N1` [CBK292084], the “% of control remaining” value is listed as 80.0418. Regarding `O=C(O)C1CCC(CNc2ccc([N+](=O)[O-])cn2)CC1` (stereo not shown) [CBK286626], the “% of control remaining” value turned out to be 127.74. Then `Cc1nc2c(C)cccc2c(O)c1CN1CCCCCC1` [CBK264512], with 106.948; and `COc1cc2c(c(OC)c1OC)CC(=O)NC21CCN(C(=O)NC(C)(C)C)CC1` [CBK047301], with 81.9995; and `Cc1cc(CN2CCN(C(=O)NCc3cccnc3)CC2)on1` [CBK305627], with 38.8648. For the compound `COc1cccc(OC)c1-c1cn2ccnc2c(NCc2ccccn2)n1` [CBK037439], the “% of control remaining” value worked out at 96.2934.

For `CC(c1ccccc1)C(CC(=O)O)C(=O)NCc1ccccc1` (stereo not shown) [CBK286830], the “% of control remaining” value came to 74.0769. `O=C(O)CCCn1cc(NC(=O)c2cccc(F)c2)cn1` [CBK270051]: the “% of control remaining” value came out at 88.6366. As for `COc1ccccc1NC(=O)NC(=O)C1CCN(C(C)=O)CC1` [CBK034853], the “% of control remaining” value is 89.3922. Then `COc1ccc(Nc2cc(-n3nc(C)cc3-c3ccccc3)ncn2)cc1` [CBK293925], with 108.891; and `Cc1ccc(Cn2ccsc2=NC(=O)c2cc(S(=O)(=O)N3CCOCC3)ccc2C)cc1` [CBK296935], with 79.2356.

For `COC(=O)Nc1ccccc1N1CCN(CCCCN2CCN(c3ccccc3)C2=O)CC1` [CBK024372C], the “% of control remaining” value was 23.0515. Then `Clc1ccc(-c2cn(-c3cnc4ccccc4c3)nn2)cc1` [CBK113044], with 85.5451; and `O=C(C1CCC1)N1CCC(n2c(=O)[nH]c3ccccc32)CC1` [CBK149709], with 101.316. The result for `Nc1c(-c2cc(F)cc(F)c2)cnc2ncccc12` [CBK083677] reads 95.2748; that for `N#C/C(=N/Nc1ccc(Br)cc1)C1=NC(=O)CS1` [CBK018747], 88.642; that for `O=C(COC(=O)c1ccncc1)c1ccc(OC(=O)c2ccccc2)cc1` [CBK265169], 91.5187. The result for `Cc1nn(-c2ccccc2)c2[nH]c(=O)c(CNC(C)C)cc12` [CBK282899] reads 107.321; that for `COc1ccc(C(=O)Nc2ccccc2N2CCN(C)CC2)cc1Cl` [CBK268001], 84.937. As for `CC(C)CCC(C)NC(=O)c1ccc(Oc2ccc(F)cc2)cc1` (stereo not shown) [CBK295650], the “% of control remaining” value was 76.9126. As for `Nc1nonc1C(=O)NCCNCc1ccc(Cl)cc1` [CBK267194], the “% of control remaining” value came out at 108.554. As to `Nc1cc(O)nc(SCC(=O)N2CCN(c3ccccc3)CC2)n1` [CBK267925], the “% of control remaining” value was found to be 103.166. Then `CN(Cc1ccc2ncccc2c1)C(=O)CC1CCN(CCc2ccccc2)CC1` [CBK286261], with 72.6554. The result for `Cc1nccn1CCC1CCN(C(=O)c2cnn(C)c2)CC1` [CBK281951] reads 112.555; that for `CC1(C)Cc2c(oc(N)c2C#N)CO1` [CBK014395], 70.4948. Then `CC(C)n1c(=O)[nH]c2ccncc2c1=O` [CBK015763], with 97.3318; and `O=C(O)C1CCCN1S(=O)(=O)c1ccc([N+](=O)[O-])cc1` (stereo not shown) [CBK261424], with 109.809; and `O=S(=O)(c1ccc(Br)cc1C(F)(F)F)N1CCOCC1` [CBK062405], with 61.1399. On to `O=C(Cc1c[nH]c2ccccc12)NC(Cc1ccccc1)C(=O)O` (stereo not shown) [CBK286770], for which the “% of control remaining” value is on record as 93.6087. Then `Cc1ccn2c(=O)c(C(=O)NCc3cccnc3N3CCOCC3)cnc2c1` [CBK298316], with 69.0866. In the case of `O=C(NC1CC(=O)N(CC(F)(F)F)C1)c1cnc(-c2ccncc2)s1` (stereo not shown) [CBK305546], the “% of control remaining” value is reported as 26.4606. Consider `O=S(=O)(Cc1cc(Cl)ccc1C(F)(F)F)c1cc2c(N3CCNCC3)nccc2s1` [CBK049960C], for which the “% of control remaining” value amounted to 80.4073. Regarding `CC(=O)N1N=C(c2ccc3c(c2)OCO3)CC1c1ccc(C(=O)O)cc1` (stereo not shown) [CBK286547], the “% of control remaining” value was determined as 108.869.

As for `O=S(=O)(NCCN1CCOCC1)c1ccc(Cl)c(Cl)c1Cl` [CBK264973], the “% of control remaining” value turned out to be 115.093. Take `O=C(c1cccs1)N1CCC[C@@H]1Cn1c(=O)oc2ccccc21` [CBK284528]: the “% of control remaining” value was determined as 76.1198. As to `Cc1cc(C)c2nc(C(F)(F)F)nc(NCCCN3CCOCC3)c2c1` [CBK266753], the “% of control remaining” value turned out to be 70.5558. For `O=C(Nc1nc(-c2cccs2)cs1)c1ccc(F)cc1` [CBK287327], the “% of control remaining” value is 77.7935. In the case of `O=C(O)CNC(=O)c1ccccc1NC(=O)c1ccco1` [CBK286894], the “% of control remaining” value amounted to 118.806. The result for `COc1cccc(CN2CCCC[C@H]3CN(C(C)=O)C[C@H]32)c1` [CBK285510] reads 103.951; that for `Cc1ccnc(SCc2cc(=O)c3c(=O)n(-c4ccccc4)[nH]c3[nH]2)n1` [CBK269875], 68.1804. Then `Cc1cc(NC(=O)CN2CCOC(CNc3cccnn3)C2)on1` (stereo not shown) [CBK305231], with 45.3435; and `O=C(NCC1(c2ccccc2)CCC1)C1CCCN(C(=O)c2ccoc2)C1` (stereo not shown) [CBK296670], with 130.454. Turning to `COc1ccc2[nH]c(SCC(=O)Nc3ccc(Br)cc3)nc2c1` [CBK263447], the “% of control remaining” value was 90.6879.

`O=C(OCc1cc2ccccc2cn1)N1CCOCC1` [CBK200121]: the “% of control remaining” value is on record as 90.1441.
